Test results taken from the supplement of paper PMC3334620.
The full ranking holds about 33,000 sequences; the median of “E-score (-0.5 to 0.5)” is about -0.053, and the highest 2% start at about 0.37. The list shows a part of the results.

molecular target: Hap1 (UniProt P0CE41); test: PBM E-score (8-mer binding enrichment) (E-score (-0.5 to 0.5)); higher = stronger / more preferred TF binding; most listed sequences are background and not binding sites; details: protein concentration: 200 nM; construct: GST-DNA-binding domain
Method in brief: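 For each ungapped eight-base word taken together with its reverse complement, the Universal PBM Analysis Suite assigned an E-score. Binding data came from GST-tagged yeast transcription factors, applied at about 100-200 nM, on universal all-10-mer Agilent arrays made double-stranded by primer extension. Fluorescent anti-GST marked bound protein, and scans were normalised with masliner.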

Chain of UniProt P0CE41 (P0CE41 whole entry, the tested form may be a part): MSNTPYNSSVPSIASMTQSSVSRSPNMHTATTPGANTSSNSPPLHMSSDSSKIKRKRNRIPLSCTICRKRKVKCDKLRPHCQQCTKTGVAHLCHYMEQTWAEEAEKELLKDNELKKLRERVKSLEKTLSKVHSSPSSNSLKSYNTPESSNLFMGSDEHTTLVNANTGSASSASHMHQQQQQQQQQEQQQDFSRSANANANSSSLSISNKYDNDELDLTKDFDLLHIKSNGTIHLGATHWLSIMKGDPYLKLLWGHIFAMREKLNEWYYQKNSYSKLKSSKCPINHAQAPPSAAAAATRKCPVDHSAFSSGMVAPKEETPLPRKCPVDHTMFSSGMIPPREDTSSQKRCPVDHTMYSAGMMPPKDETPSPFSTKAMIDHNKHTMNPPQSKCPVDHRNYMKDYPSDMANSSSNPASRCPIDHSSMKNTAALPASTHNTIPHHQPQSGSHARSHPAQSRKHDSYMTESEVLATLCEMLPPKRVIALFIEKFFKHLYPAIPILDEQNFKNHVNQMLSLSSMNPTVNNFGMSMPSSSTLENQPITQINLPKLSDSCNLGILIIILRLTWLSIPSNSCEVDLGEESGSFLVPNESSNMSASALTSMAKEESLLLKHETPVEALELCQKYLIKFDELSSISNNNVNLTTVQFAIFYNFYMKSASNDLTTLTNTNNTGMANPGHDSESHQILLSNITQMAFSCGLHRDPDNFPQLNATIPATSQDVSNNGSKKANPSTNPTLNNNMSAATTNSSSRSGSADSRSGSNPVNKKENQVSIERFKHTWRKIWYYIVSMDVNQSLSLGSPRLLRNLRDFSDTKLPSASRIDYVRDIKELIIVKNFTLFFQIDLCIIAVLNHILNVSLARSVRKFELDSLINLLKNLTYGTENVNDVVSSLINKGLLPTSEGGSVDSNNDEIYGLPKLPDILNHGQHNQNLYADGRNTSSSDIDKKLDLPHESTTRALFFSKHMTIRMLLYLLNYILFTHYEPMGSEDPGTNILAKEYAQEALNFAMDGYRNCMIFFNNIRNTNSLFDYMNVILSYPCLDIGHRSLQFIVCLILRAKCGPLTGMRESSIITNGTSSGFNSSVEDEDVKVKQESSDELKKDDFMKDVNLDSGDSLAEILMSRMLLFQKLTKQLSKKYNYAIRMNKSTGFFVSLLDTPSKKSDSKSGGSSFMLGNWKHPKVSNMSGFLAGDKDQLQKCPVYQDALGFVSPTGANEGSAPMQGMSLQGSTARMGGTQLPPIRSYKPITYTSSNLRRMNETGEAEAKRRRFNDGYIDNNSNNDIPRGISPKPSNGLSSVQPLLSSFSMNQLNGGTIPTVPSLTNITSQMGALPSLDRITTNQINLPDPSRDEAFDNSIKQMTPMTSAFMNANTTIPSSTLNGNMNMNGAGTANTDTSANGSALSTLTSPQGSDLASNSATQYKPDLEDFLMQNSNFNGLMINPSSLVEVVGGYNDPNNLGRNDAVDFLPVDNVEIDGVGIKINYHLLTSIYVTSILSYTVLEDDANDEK

Sequence | PBM E-score
AAGATGGC | -0.0374
ATGATCGA | -0.00064
ACGGATCC | 0.283
GATATGCA | 0.0359
CAATGTGC | -0.123
TACCCTAA | -0.137
GTGCAACA | -0.198
GTGTGATA | -0.0571
AGGTTTAT | 0.126
CGATGTTA | -0.0124
CAACTTAA | -0.195
CCTGTGCG | -0.0389
AGTAGAAA | 0.0186
CACTTACC | 0.123
CGGGGAAA | 0.349
TGCCATAA | -0.0654
GAAGTAAC | 0.192
CTCAGGTC | -0.0727
CTCAACCC | 0.052
GCCACCAC | -0.15
CACTTGCC | 0.00485
CATGACCC | -0.0966
ATTTATGG | -0.0655
GGAACAGA | -0.0465
CTGCCTAA | -0.257

Sequence | PBM E-score
AAGCGTGC | -0.0977
TCTTTGCA | -0.204
CATGTAGC | -0.121
CCGCAGAA | 0.207
ATGACCCG | 0.0877
GCATACGA | -0.182
CGTTTTCC | 0.0123
CGCTTTCA | 0.0753
GACATGAA | -0.092
CGCGCACG | 0.177
CGTCTGTC | -0.118
CTACAAGA | -0.118
AATACTCG | -0.038
CAGCTCCG | 0.299
CTCTAACC | -0.00256
AACTATAA | 0.0884
TAAGCCTA | -0.0219
CTTCTAAC | -0.151
CGTAGCAG | -0.104
GGACTTCA | 0.136
ACTTGGCA | -0.229
CGACGCAC | 0.00232
GATGGACC | 0.107
AGCCTATG | -0.207
GTTCTCAA | -0.101

Sequence | PBM E-score
ACTACAAG | -0.0389
ACTTCGCG | 0.138
TAAGTTGA | -0.273
CCCAGAGC | -0.267
GGCATACA | -0.0392
ACAGTCAC | -0.256
ACTTCCCT | -0.0608
CAGGCGTA | -0.278
GAGTGCCC | -0.0131
GGTTCACA | -0.141
AAGGTATA | -0.177
ATCCGCGA | 0.196
ACCAATGG | -0.0537
TAAGCGCA | -0.229
CACCCACC | -0.00045
CCCCAGAA | -0.138
AAGGAGTA | -0.0697
CCTCGAAA | -0.208
CGACGTGC | 0.132
ATCGTCTA | -0.227
CGAACTTA | 0.141
AATTGTCG | 0.0432
TATGGCCA | -0.123
AGTCGACA | -0.118
CTTAACTC | 0.233

Sequence | PBM E-score
GGCGATGA | 0.19
AGCCCGAG | 0.208
AGAGCTCT | -0.0527
CGGCCAGC | 0.188
ACCAGCAC | -0.289
CCAAGCCG | 0.0286
AGTCATGG | -0.0964
ACTACCAG | -0.122
CGTGTGGC | -0.137
CTCACACC | -0.15
AGAGAATG | -0.296
AATAAAGT | 0.019
TCTATCAA | -0.323
CCCTGCTA | -0.236
GCTATGCC | -0.0116
ATCGCCAA | -0.0744
ACCATGCG | -0.0491
GGGTCGCA | 0.0245
CATTGGTA | 0.0746
ATGTCCTC | -0.175
GCTCTTGA | -0.0899
CGCCTATC | 0.0376
ACGACTAG | -0.232
ACGGGGCG | 0.116
CATGGCGC | 0.0452

Sequence | PBM E-score
CACGACGC | -0.0711
CGCCCGCC | 0.229
AGATTTGC | -0.0545
ATCCATTA | 0.0158
CGCATCCG | 0.248
AACGCATG | -0.125
ATACATCG | 0.131
AGTGCAGA | 0.045
AACAAGTT | -0.0535
ACTCCTCA | -0.294
AGGTCGTA | -0.245
AGTACAGC | -0.0613
AAAACCGC | 0.109
AAACTCCA | -0.0578
ATACAATC | -0.0394
TAACTACA | -0.0514
CAAAACAC | -0.0221
CACCCTCC | 0.175
CGATCCGA | 0.352
CTGCGCAA | 0.0295
CTGTATGA | -0.0248
ACGTAGAG | -0.227
AAACCTTC | 0.00763
AACGAGCT | -0.15
AGTGGAAG | 0.0152

Sequence | PBM E-score
ATGAACTG | 0.0129
CCCGACTC | 0.195
CCAGTAGC | 0.113
GATTGTTA | 0.0736
CCTCAGCG | 0.0416
GATGGCCA | -0.201
ACTCCCAC | -0.0353
GTGCGTTA | 0.00602
TGATACAA | -0.0823
ACCATTCT | -0.123
CACCCTGA | -0.222
GACAGGAA | 0.0575
AGTATCCA | -0.0363
ATCAAGAA | -0.163
AAGATGAA | -0.048
ACCCCTAT | -0.0953
GTCAACGA | -0.239
CGACCTGC | 0.0171
CAGTGTGA | -0.272
CGATGTGC | 0.161
TAACGCCA | -0.103
AGCTACTG | -0.00261
TGATTACA | -0.187
ATGCCTAG | -0.0474
CAACCTCC | 0.143

Sequence | PBM E-score
ACCCATGC | -0.249
TCATCAGA | -0.134
AGACACCG | 0.177
GGTGGTAC | 0.00683
TATTTCGA | -0.0364
AACCAACG | -0.104
GATGGAGA | -0.0257
CTCAGCTC | 0.0386
CCTCCCTA | -0.229
GAGGAAGC | -0.0296
ATGACAGC | -0.296
CTCTACCC | -0.22
ACGGGGCC | 0.186
CTTTAAGC | 0.0622
CTCGATCC | -0.0215
CGACCAAC | -0.0313
AATACTAG | -0.0844
AAGATCTC | -0.14
GGGAACAC | 0.0601
CACACGTC | -0.0573
AAGTCACT | -0.23
ACTCCCGG | 0.378
